{"source": "paper PMC6919601", "about": "“Identification of Plasmodium dipeptidyl aminopeptidase allosteric inhibitors by high throughput screening” (PLoS ONE, 2019)", "note": "The campaign covered roughly 110,000 compounds. About 230 (0.21%) showed an effect of 50% or more. The list shows a part of the results.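 Note: 30 min substrate incubation versus DMSO and 10 µM JCP410 controls.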"}
{"biological_target": "DPAP1 (Plasmodium falciparum, UniProt Q8IIJ9)", "sequence (Q8IIJ9 whole entry, looked up)": "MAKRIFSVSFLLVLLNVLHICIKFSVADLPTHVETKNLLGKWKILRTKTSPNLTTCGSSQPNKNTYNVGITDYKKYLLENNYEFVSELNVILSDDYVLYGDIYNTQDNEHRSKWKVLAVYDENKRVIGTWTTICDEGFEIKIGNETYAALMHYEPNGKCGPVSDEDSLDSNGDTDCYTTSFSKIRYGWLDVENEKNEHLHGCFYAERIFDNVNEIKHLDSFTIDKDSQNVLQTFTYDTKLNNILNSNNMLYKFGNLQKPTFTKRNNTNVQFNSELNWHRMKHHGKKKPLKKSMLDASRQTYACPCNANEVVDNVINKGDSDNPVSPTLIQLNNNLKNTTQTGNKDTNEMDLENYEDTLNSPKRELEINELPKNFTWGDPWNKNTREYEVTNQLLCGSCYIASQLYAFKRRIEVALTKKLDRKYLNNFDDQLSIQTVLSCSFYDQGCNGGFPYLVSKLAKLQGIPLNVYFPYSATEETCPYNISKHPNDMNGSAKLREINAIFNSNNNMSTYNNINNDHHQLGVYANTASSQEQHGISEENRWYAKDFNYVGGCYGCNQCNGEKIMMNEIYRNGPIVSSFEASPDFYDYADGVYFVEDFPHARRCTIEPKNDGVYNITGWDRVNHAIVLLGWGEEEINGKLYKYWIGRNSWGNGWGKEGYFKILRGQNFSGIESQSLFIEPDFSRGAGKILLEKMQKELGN", "assay": "primary screen, percent inhibition; read by cleavage of a fluorogenic dipeptide substrate; higher = more effect of the substance", "design": "species or system P. falciparum D10 trophozoite lysates; single well", "units": {"% Inhibition @ 10 uM": "%"}}
{"smiles": "COc1cc(CNC(C)(C)CO)cc(Br)c1OCc1ccc(Cl)cc1", "% Inhibition @ 10 uM": -1.96}
{"smiles": "CN1C(=O)CC(N2CCN(c3ccc(Cl)cc3)CC2)C1=O", "note": "(centres unmarked)", "% Inhibition @ 10 uM": 0.912}
{"smiles": "CCN(CC)c1ccc(NC(=O)C(C)C)c(C)c1", "% Inhibition @ 10 uM": 0.686}
{"smiles": "O=C(NC(c1ccccc1)c1ccccc1)c1ccc(Br)o1", "% Inhibition @ 10 uM": -5.26}
{"smiles": "CCOC(=O)N1CCN(C(=O)NC2(C(F)(F)F)Oc3ccccc3O2)CC1", "% Inhibition @ 10 uM": 5.11}
{"smiles": "Cc1cc(N2CCN(C)CC2)n2nc(C)c(-c3ccc(Cl)cc3)c2n1", "% Inhibition @ 10 uM": 2.35}
{"smiles": "Cc1ccc(C)c(OCc2nc3ccccc3[nH]2)c1", "% Inhibition @ 10 uM": 1.88}
{"smiles": "COc1ccc(/C=N/n2c(N(C(C)=O)C(C)=O)nc(-c3ccccc3)c2-c2ccccc2)cc1", "% Inhibition @ 10 uM": 2.79}
{"smiles": "COc1ccc(CCNC(=O)Nc2cn(CC(C)C)c(=O)c3ccccc23)cc1OC", "% Inhibition @ 10 uM": -0.171}
{"smiles": "Cc1c(C(=O)NC2CC2)oc2c1-c1nn(Cc3cccc(Cl)c3)cc1CC2", "% Inhibition @ 10 uM": -0.0401}
{"smiles": "COc1cccc(OCCSc2nc3c(N)ncnc3[nH]2)c1", "% Inhibition @ 10 uM": -7.94}
{"smiles": "COc1ccc(C2=N/C(=C/C=C/c3ccccc3)C(=O)O2)cc1Br", "% Inhibition @ 10 uM": 3.42}
{"smiles": "CCC(=O)NC(Cc1ccccc1)c1ccc2c(c1)OCCCO2", "note": "(centres unmarked)", "% Inhibition @ 10 uM": 0.475}
{"smiles": "COc1ccccc1-c1ccc(C(=O)N[C@@H](CC(C)C)C(=O)NCC#N)cn1", "% Inhibition @ 10 uM": -0.207}
{"smiles": "CC(=O)Nc1ccc(OCCO)c(OCCO)c1", "% Inhibition @ 10 uM": -3.92}
{"smiles": "O=C1Nc2ccccc2/C1=C/C(=O)c1ccc(F)cc1", "% Inhibition @ 10 uM": -1.5}
{"smiles": "CC(C)(C)c1ccc(S(=O)(=O)N2CCCCC2C(=O)O)cc1", "note": "(centres unmarked)", "% Inhibition @ 10 uM": -2.49}
{"smiles": "CCOC(=O)C1=C(CC)OC(N)=C(C#N)C1c1ccc(F)cc1", "note": "(centres unmarked)", "% Inhibition @ 10 uM": 1.75}
{"smiles": "CN1C2=CC(=O)CCN2c2ccccc21", "% Inhibition @ 10 uM": -7.7}
{"smiles": "CCOC(=O)c1c(CN2CCOCC2)n(C)c2cc(Br)c(OC)cc12", "% Inhibition @ 10 uM": -4.96}
{"smiles": "O=C(NC1(C(F)(F)F)C(=O)Nc2c1c(=O)[nH]c(=O)n2-c1ccc(Cl)cc1)c1cccnc1", "note": "(centres unmarked)", "% Inhibition @ 10 uM": 5.24}
{"smiles": "c1ccc2c(Cc3nn[nH]n3)c[nH]c2c1", "% Inhibition @ 10 uM": 85}
{"smiles": "Cc1[nH]c(-c2ccc(F)cc2)cc1C(=O)NCCc1ccc(S(N)(=O)=O)cc1", "% Inhibition @ 10 uM": 3.05}
{"smiles": "CCCn1c2ccccc2c2nnc(SC(CC)C(=O)Nc3cc(C)on3)nc21", "note": "(centres unmarked)", "% Inhibition @ 10 uM": -5.08}
{"smiles": "CN(C1CCCCC1)S(=O)(=O)c1ccc2nc(O)cc(C(=O)NCCc3ccccc3)c2c1", "% Inhibition @ 10 uM": -1.96}
{"smiles": "COc1cccc(/C=C2\\NC(=O)N(Cc3ccc(C)cc3)C2=O)c1OC(C)C", "% Inhibition @ 10 uM": -7.89}
{"smiles": "O=C1CC(c2cccc(F)c2)c2c(O)nc3nc4ccccc4n3c2N1", "note": "(centres unmarked)", "% Inhibition @ 10 uM": -2.05}
{"smiles": "COc1cc(/C=C2/C(=N)N3OC(C)=CC3=NC2=O)ccc1OCc1ccc(F)cc1", "% Inhibition @ 10 uM": 3.63}
{"smiles": "O=C(NC(C(=O)O)C12CC3CC(CC(C3)C1)C2)c1ccccc1F", "note": "(centres unmarked)", "% Inhibition @ 10 uM": -1.42}
{"smiles": "CC(C)NC(=O)c1ccc(CS(=O)Cc2ccccc2Cl)o1", "note": "(centres unmarked)", "% Inhibition @ 10 uM": 7.38}
{"smiles": "COc1ccc(S(=O)(=O)N(C)CC(=O)Nc2c(F)cccc2F)cc1", "% Inhibition @ 10 uM": -0.67}
{"smiles": "CC(C)Oc1ccc(S(=O)(=O)N(C(C)C)C(C)C)cn1", "% Inhibition @ 10 uM": 4.83}
{"smiles": "Cn1nc(Oc2nc(N3CCOCC3)nc(N3CCOCC3)n2)ccc1=O", "% Inhibition @ 10 uM": 3.73}
{"smiles": "CCn1ncc(C2C3=C(O)CCCC3=NC(C)=C2C(=O)Nc2ccc(C)cn2)c1C", "note": "(centres unmarked)", "% Inhibition @ 10 uM": 2.51}
{"smiles": "CC(=O)NCc1ccc(C(C)(C)C)s1", "% Inhibition @ 10 uM": 11.8}
{"smiles": "O=C(CSc1nc2nncc-2c(O)n1-c1ccccc1)Nc1nc(-c2ccccc2)ns1", "% Inhibition @ 10 uM": -4.43}
{"smiles": "CCN1CCC(N(C)Cc2ccccc2)CC1", "% Inhibition @ 10 uM": 3.68}
{"smiles": "O=C(COc1ccccc1)Nc1cc(Cl)ccc1Cl", "% Inhibition @ 10 uM": -3.03}
{"smiles": "O=C(CN1CCN(c2ccccn2)CC1)Nc1ccc(F)c(F)c1", "% Inhibition @ 10 uM": 2.38}
{"smiles": "CCOC(=O)c1cnc2c(Cl)c(Cl)ccc2c1NCCOC(=O)c1cccnc1", "% Inhibition @ 10 uM": -5.62}
{"smiles": "COc1ccc(C2=C(C)C(C#Cc3ccccc3)c3ccccc3O2)cc1", "note": "(centres unmarked)", "% Inhibition @ 10 uM": -0.233}
{"smiles": "O=C(c1cc2c(s1)-c1ccc(Cl)cc1S(=O)(=O)C2)N1CCN(c2ncccn2)CC1", "% Inhibition @ 10 uM": -6.33}
{"smiles": "COc1ccc(NC(=O)C(CC(C)C)N2C(=O)c3ccccc3C2=O)cc1", "note": "(centres unmarked)", "% Inhibition @ 10 uM": -4.82}
{"smiles": "COc1ccc(-c2cn3c(n2)sc2cc(C(=O)N4CCOCC4)ccc23)cc1", "% Inhibition @ 10 uM": 15.1}
{"smiles": "CSc1ncccc1C(=O)Nc1c(C)nn(C)c1C", "% Inhibition @ 10 uM": -5.03}
{"smiles": "CCCCOc1ccc(C(C)NC(=O)CSCc2nc(-c3ccc(OC)cc3)oc2C)cc1", "note": "(centres unmarked)", "% Inhibition @ 10 uM": -0.971}
{"smiles": "CNC(=O)C1CC(=O)N(Cc2ccc(Cl)cc2)/C(=N/c2ccc(OC)cc2)S1", "note": "(centres unmarked)", "% Inhibition @ 10 uM": 3.17}
{"smiles": "COCCN1C(=O)/C(=C/c2cc(Br)ccc2O)S/C1=N\\c1ccccc1", "% Inhibition @ 10 uM": 17.6}
{"smiles": "O=[N+]([O-])c1cccc(CN2CCc3ccccc3C2)c1", "% Inhibition @ 10 uM": 1.63}
{"smiles": "CCOc1cc(C(=O)Nc2ccc(Cl)cc2F)cc(OCC)c1OCC", "% Inhibition @ 10 uM": 0.163}
{"smiles": "O=C(Nc1ncccn1)C1c2ccccc2Oc2ccccc21", "% Inhibition @ 10 uM": -3.77}
{"smiles": "CCOc1ccc(/C=c2/oc3cccc4c(OC)ccc(c2=O)c34)cc1", "% Inhibition @ 10 uM": -4.93}
{"smiles": "O=C(Nc1cccc2ncccc12)c1cccs1", "% Inhibition @ 10 uM": 8.19}
{"smiles": "CCCCCC1=NN2C(=O)CC(=O)N=C2S1", "% Inhibition @ 10 uM": 1.88}
{"smiles": "N#Cc1c(NC(=O)c2cc(-c3ccc(O)cc3)on2)sc2c1CCC2", "% Inhibition @ 10 uM": 6.87}
{"smiles": "CCOc1ccc2ncc(C(=O)c3ccc(C)cc3)c(N3CCCC3)c2c1", "% Inhibition @ 10 uM": -8.57}
{"smiles": "COc1ccc(N(CC(=O)N2CCOCC2)S(C)(=O)=O)cc1Cl", "% Inhibition @ 10 uM": -7.97}
{"smiles": "COC(=O)C1=C(C)NC(=O)CC1c1ccncc1", "note": "(centres unmarked)", "% Inhibition @ 10 uM": -3.27}
{"smiles": "COC(=O)c1ccc(-n2cccc2)cc1", "% Inhibition @ 10 uM": -3.93}
{"smiles": "COc1ccc(C(C(=O)O)(c2ccccc2)c2ccccc2)cc1OC", "% Inhibition @ 10 uM": -0.703}
{"smiles": "CCCCCCNC(=O)CCc1c(C)nc2c(-c3ccccc3)c(C)nn2c1C", "% Inhibition @ 10 uM": 1.26}
{"smiles": "O=Cc1[nH]c(-c2ccccc2)c2ccccc12", "% Inhibition @ 10 uM": -3.5}
{"smiles": "CN(C)Cc1c(N)cccc1O", "% Inhibition @ 10 uM": -1.86}
{"smiles": "CCOC(=O)c1ccc(NC(=O)c2ccc(OC)cc2)cc1", "% Inhibition @ 10 uM": 0.00178}
{"smiles": "CC1CCN(S(=O)(=O)c2nnc(NC(=O)c3cccc4ccccc34)s2)CC1", "% Inhibition @ 10 uM": -5.37}
